# Test results published in the supplement of paper PMC7826260.
# Some of the results follow. The data describe in vitro nicking of single-stranded DNA by Rep domains (1 h at 37 °C, 3 µM enzyme); the outer parts of the 90-letter strands are left off. The score is log2 (uncut reads / reads without enzyme); more negative means more cut, near 0 not cut, and no call is made. Because reads are shares of a total, they shift together; uncut strands gain when others are lost, and binding without cutting may add a little.
# Key:
# Experiment in all cases: uncleaved DNA left, log2 of reads against the no-enzyme library (log2 ratio); higher = less cleavage (more negative = more Rep cleavage of the k-mer); sequences stand for … in CTCGTCCG…ACCGGAGA
# [1] = system: T1, Rep nickase domain of Muscovy duck circovirus
# T1 sequence (protein, residues 1-111, tag omitted): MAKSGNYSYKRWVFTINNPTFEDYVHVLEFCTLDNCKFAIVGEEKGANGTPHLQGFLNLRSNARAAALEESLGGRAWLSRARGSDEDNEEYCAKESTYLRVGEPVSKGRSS
# Protocol: (§1)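 A pool of 90-nt single-stranded DNAs with seven random bases just before the constant AC of the nick site (name = the seven bases) was cut by 3 µM recombinant His6-SUMO-tagged Rep nickase domain (300 nM DNA, 50 mM HEPES pH 8.0, 50 mM NaCl, 1 mM MnCl2, 1 h, 37 °C, three replicates). Uncut DNA was amplified and sequenced.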
# [2] = system: T2, Rep nickase domain of banana bunchy top virus
# T2 sequence (protein, residues 1-94, tag omitted): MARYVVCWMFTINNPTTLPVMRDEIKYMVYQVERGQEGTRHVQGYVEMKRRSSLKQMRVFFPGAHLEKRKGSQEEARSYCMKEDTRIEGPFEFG
# Protocol: as §1
# [3] = system: T3, Rep nickase domain of cabbage leaf curl virus
# T3 sequence (protein, residues 1-116, tag omitted): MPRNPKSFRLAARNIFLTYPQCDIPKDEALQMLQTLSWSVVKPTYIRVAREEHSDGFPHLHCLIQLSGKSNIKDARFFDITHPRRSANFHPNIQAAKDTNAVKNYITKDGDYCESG
# Protocol: as §1
# [4] = system: T4, Rep nickase domain of chickpea chlorotic dwarf virus
# T4 sequence (protein, residues 1-124, tag omitted): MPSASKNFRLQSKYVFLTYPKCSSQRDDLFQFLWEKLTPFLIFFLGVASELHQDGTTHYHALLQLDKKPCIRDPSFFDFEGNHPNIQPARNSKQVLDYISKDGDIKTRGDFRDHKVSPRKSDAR
# Protocol: as §1
# [5] = system: T5, Rep nickase domain of faba bean necrotic yellows virus
# T5 sequence (protein, residues 1-98, tag omitted): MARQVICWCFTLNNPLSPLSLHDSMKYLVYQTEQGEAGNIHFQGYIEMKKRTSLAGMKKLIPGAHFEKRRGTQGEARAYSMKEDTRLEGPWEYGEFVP
# Protocol: as §1
# [6] = system: T6, Rep nickase domain of maize striate mosaic virus
# T6 sequence (protein, residues 1-117, tag omitted): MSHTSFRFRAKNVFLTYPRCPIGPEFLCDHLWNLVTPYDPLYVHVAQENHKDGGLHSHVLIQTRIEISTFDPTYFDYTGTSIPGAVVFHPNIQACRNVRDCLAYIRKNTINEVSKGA
# Protocol: as §1
# [7] = system: T7, Rep nickase domain of porcine circovirus 2
# T7 sequence (protein, residues 2-116, tag omitted): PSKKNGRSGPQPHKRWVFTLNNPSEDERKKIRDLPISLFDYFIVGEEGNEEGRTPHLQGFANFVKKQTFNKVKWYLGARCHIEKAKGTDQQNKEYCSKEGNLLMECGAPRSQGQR
# Protocol: as §1
# [8] = system: T8, Rep nickase domain of tomato golden mosaic virus
# T8 sequence (protein, residues 1-124, tag omitted): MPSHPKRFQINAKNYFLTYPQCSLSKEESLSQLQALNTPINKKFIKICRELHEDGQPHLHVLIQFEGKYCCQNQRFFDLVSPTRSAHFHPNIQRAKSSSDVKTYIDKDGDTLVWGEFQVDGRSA
# Protocol: as §1
# [9] = system: T9, Rep nickase domain of tomato yellow leaf curl virus
# T9 sequence (protein, residues 1-136, tag omitted): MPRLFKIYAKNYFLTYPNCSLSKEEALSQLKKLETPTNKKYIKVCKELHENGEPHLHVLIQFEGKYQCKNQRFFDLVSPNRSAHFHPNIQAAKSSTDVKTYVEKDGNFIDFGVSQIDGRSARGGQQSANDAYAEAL
# Protocol: as §1
# [10] = system: T10, Rep nickase domain of wheat dwarf virus
# T10 sequence (protein, residues 1-137, tag omitted): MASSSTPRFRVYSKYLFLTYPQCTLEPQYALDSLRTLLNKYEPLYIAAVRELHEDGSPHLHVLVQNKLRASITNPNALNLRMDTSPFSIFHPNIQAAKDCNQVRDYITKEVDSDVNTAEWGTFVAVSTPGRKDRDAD
# Protocol: as §1
Sequence,uncleaved DNA left (log2) [1],uncleaved DNA left (log2) [2],uncleaved DNA left (log2) [3],uncleaved DNA left (log2) [4],uncleaved DNA left (log2) [5],uncleaved DNA left (log2) [6],uncleaved DNA left (log2) [7],uncleaved DNA left (log2) [8],uncleaved DNA left (log2) [9],uncleaved DNA left (log2) [10]
TTACAAG,0.0835,-0.00024,-0.952,-1.39,0.0186,-1.33,0.0526,0.0411,-0.0287,-0.0677
TACAGCA,-0.0123,0.00804,-0.502,-2.05,0.0607,-1.02,-0.427,-0.0368,0.00674,-0.0205
TGTAGGA,0.0581,0.023,0.167,0.368,0.0884,-0.205,0.113,0.171,-0.0502,0.0278
GAATAAG,0.00623,0.0154,-0.704,-0.264,-0.00975,-0.939,0.0551,-0.0306,-0.0451,-0.0924
TGGCGGT,0.00909,-0.0825,-0.124,-0.191,-0.0766,-0.265,-0.107,-0.0336,-0.165,-0.0627
TGACTGT,-0.00656,-0.045,0.0595,0.606,0.0402,1.67,0.0101,-0.0786,0.00915,0.0654
CTTTTCC,0.00689,0.0258,0.0601,-0.255,-0.0292,-0.554,0.0362,-0.126,0.112,0.0583
TTTAGCA,-0.00553,0.0149,-0.16,-0.876,-0.00484,-0.973,-0.257,-0.0327,-0.106,0.0548
CTAAACC,0.0186,0.0761,0.0632,-0.95,0.123,-0.585,-0.306,0.0479,0.0937,0.15
CCATGCC,-0.0186,0.0345,-0.584,-0.634,-0.0241,-1.18,0.0333,-0.106,-0.0552,-0.186
GAGGCTC,-0.00208,0.202,0.556,1.18,0.0327,1.8,0.137,0.0993,0.0611,0.106
ATGGCTA,0.0298,0.0245,-0.136,-0.271,-0.0366,-0.121,-0.0351,-0.0203,-0.0395,-0.0819
ACTTGCG,-0.0866,-0.063,0.448,1.82,-0.028,2.19,-0.0349,-0.0794,-0.111,0.00931
AAAGCGC,-0.0129,-0.0951,-0.772,-0.258,-0.0361,-1.05,0.102,-0.0651,-0.0744,-0.219
GGGATGG,-0.0306,0.0102,0.857,1.88,0.0387,2.17,0.21,0.0186,0.0358,0.0817
GTCCGTG,-0.0562,0.0894,0.196,0.643,-0.0395,1.21,-0.00693,0.0456,0.0199,-0.031
TCTACAG,-0.0641,-0.00464,-0.747,-2.04,0.0381,-1.03,0.0364,-0.0294,-0.00973,-0.0701
TCAGTAA,0.0564,0.119,0.178,-0.209,0.146,-0.199,0.081,0.149,0.0354,-0.0174
ACACGGC,-0.00061,0.0215,-0.42,-0.373,0.0348,-0.937,0.209,0.0641,-0.076,-0.0284
ACCATGG,0.0282,-0.0162,-0.715,-0.381,-0.0403,-1.16,0.2,-0.0252,0.0412,-0.0288
AGCCGTA,0.0193,-0.0133,-0.0899,-0.193,-0.0655,0.134,-0.304,-0.0471,-0.212,-0.118
GTGCCTC,-0.135,0.0925,0.221,0.836,-0.0715,1.75,0.0498,0.0799,-0.0393,-0.0473
CTGCACG,0.0253,-0.118,-0.971,-0.486,-0.0762,-1.1,0.0924,-0.0425,-0.167,-0.251
TCGGTGT,0.123,-0.067,0.0064,-0.208,-0.116,-0.456,-0.0405,0.0434,-0.0825,-0.0705
GGGTGCG,-0.00272,-0.0116,-0.174,0.994,0.0666,0.742,0.0882,0.0684,-0.117,-0.0725
ACTAAAC,0.0575,0.0921,-0.152,-0.361,0.0562,-0.695,0.135,-0.00746,-0.138,0.00595
ATTTTTG,-0.0216,0.0213,-0.675,-0.453,-0.0206,-1.36,0.141,-0.0187,-0.0646,-0.131
GGATAGT,-0.249,0.0828,0.762,1.57,0.116,2.06,-0.79,0.0599,0.115,0.167
TGGCTTA,0.195,0.119,0.432,0.21,0.292,0.788,0.139,0.206,0.264,0.342
ACGGTGA,-0.0173,-0.029,-0.309,-0.418,-0.105,-0.671,-0.0174,-0.12,-0.0965,-0.175
